Self-cleavage data for 84 variants are collected here from the RNAGym collection of RNA variant scans (doi:10.7554/elife.90254).

Read counts are not given, so values of variants with three or more changes are uncertain.

The labels stand for the following.
B1: OR4K15 (parent)
chain: GUUAACGGUCAUAGGCCAUGGAAACUAGGAGCACCAUUUCGCUGCCAGUGAAGAAAUGAACAAAGAAAAUCUGGGCCAGGCAGGCAUCAAAAGAAAUAGUCUUGCGCUCAACCAGAAAGUCUGUAAUCAUUUUAAGGGUA

In the series the parent is B1. Briefly: self-cleavage, relative activity (ratio to wild type); higher = more cleavage; in vitro, sequencing; the parent is a self-cleaving ribozyme.
For the variant U2A A55G U122C, the self-cleavage worked out at 0.22.

As for U2C A22G A33G U57C A67G A117G A140U, the self-cleavage was 0.33.

Regarding U2G A78G A116G, the self-cleavage is 0.52.

U2C A18U A54G A66U A78U U100C: the self-cleavage came to 0.69.

Turning to U2C A47U A55U A69G U70C A94G U122C, the self-cleavage is 0.07.

As for G1U A68G A96G, the self-cleavage came to 2.14.

As for U2C U102A A114U, the self-cleavage turned out to be 0.15.

On to U2A A51G U72A U131C A140U, for which the self-cleavage was determined as 0.24.

In the case of G1A U9A A69G A89G, the self-cleavage stood at 1.4.

G1U A30G U38A A60G C101U: the self-cleavage was 0.6.

As for U2C A89G U133C, the self-cleavage was 1.57.

As to U2A A52G U57C A60G A89G U103C A116G A117G A140G, the self-cleavage was 0.07.

Consider U2C A91U U108A U127C, for which the self-cleavage turned out to be 0.02.

For U2A A18G U127C, the self-cleavage came out at 1.55.

With U2C A30U A54G, the self-cleavage is 0.08.

Regarding U2C A23G A59G, the self-cleavage stood at 1.05.

Take U2G U3C U26C A55C: the self-cleavage was determined as 2.37.

As to U2C A90G A116U A126G, the self-cleavage is 0.02.

As for U3A U127A A134U, the self-cleavage is 1.67.

For U2A A52C U70A A78U, the self-cleavage stood at 0.39.

U2A U19G A27U A96G: the self-cleavage came to 1.25.

Turning to U2C A51G A91U, the self-cleavage was found to be 1.51.

Regarding U2C A33C A86G, the self-cleavage amounted to 0.99.

For the variant U2C G14U A54G A118G, the self-cleavage came out at 0.11.

Consider U2C A5G A24G U43A A140G, for which the self-cleavage came to 0.67.

U2C G75A U120A: the self-cleavage stood at 0.09.

Take U2C A82U A90G U100C: the self-cleavage amounted to 0.48.

Consider U2G A5G A82G U122C U139A, for which the self-cleavage is 0.48.

On to U2C A66G U108G, for which the self-cleavage stood at 0.03.

Consider G1A A23G U38C A96G U132A, for which the self-cleavage was 0.72.

Take U2C U49A A52G U122G: the self-cleavage was determined as 2.32.

As for U2C A22G U139C, the self-cleavage amounted to 1.29.

For U2C U3A A22G A59G A60G A91C A110G, the self-cleavage came to 0.09.

U2C A22U A86G A91G U130G: the self-cleavage worked out at 0.06.

Consider U2C U49C A55G A95G, for which the self-cleavage was determined as 1.5.

Turning to G1A A91G U103C, the self-cleavage is 1.43.

Consider U2A A30G A36U A90G A91G, for which the self-cleavage amounted to 0.78.

Regarding U2C U3C U39C, the self-cleavage is 1.03.

Turning to U2C U37C A62G A66G, the self-cleavage was determined as 1.08.

As to U2C C25G G31A A62U A92G U103C, the self-cleavage was 0.45.

U2G A55G A95G: the self-cleavage was determined as 1.48.

As for U2C A11U A33G A59U A129G, the self-cleavage was determined as 0.49.

Consider G1A A47G U100C U103C A114G A116C A117G, for which the self-cleavage amounted to 0.03.

As for U2C A33U A78U A91G U103C A134G, the self-cleavage was found to be 0.04.

For U2C C32U A56G, the self-cleavage was found to be 0.71.

Turning to G1A A59G A92G, the self-cleavage amounted to 1.47.

Consider U2C U12C A126U, for which the self-cleavage was 1.18.

As for U2A A56G U57C A63G A89G A126G U133G, the self-cleavage amounted to 0.21.

Consider U2A A89G A129G, for which the self-cleavage was determined as 0.58.

As for U2C A11G U49C, the self-cleavage came out at 0.68.

For U2C C6A C71A U102C U127C, the self-cleavage is 0.48.

With U2C U9C A11C, the self-cleavage was 0.36.

U2C A22G A23G A59G U87C A92G A134C: the self-cleavage came out at 0.69.

As for U2C A22G U70G U108C, the self-cleavage came out at 0.1.

With U2C A11U U87C A94G A125G U127C, the self-cleavage amounted to 0.08.

Turning to U2A A91G A96G A135G, the self-cleavage came to 0.47.

On to U2A A13G A36G C81U A118G, for which the self-cleavage is 0.49.

On to U2C A11G A36U, for which the self-cleavage came out at 1.41.

For the variant U2C A22G A54G A55G, the self-cleavage turned out to be 0.91.

In the case of U2C A23G A68G A98G A135U, the self-cleavage amounted to 0.8.

As for U2C A30G U100C, the self-cleavage was 2.13.

In the case of U2C A30G U43C C105U A117G, the self-cleavage amounted to 0.31.

For the variant U3A U57C U132G, the self-cleavage came to 1.08.

U2C U57C A117G: the self-cleavage came out at 0.4.

Regarding U3A A18G U70G U102C, the self-cleavage was 1.41.

As to U2C A13G A33G A95G U100A U103C, the self-cleavage was 0.35.

Turning to U2C A66G U122G, the self-cleavage was determined as 2.51.

As to U2C U12C A27U, the self-cleavage came to 1.1.

U2C A68U A90G A96G: the self-cleavage stood at 1.58.

U2A A68C A125G: the self-cleavage amounted to 0.64.

Consider G1A A52U A135G, for which the self-cleavage is 1.54.

As for U2C A52G U127C, the self-cleavage stood at 0.67.

In the case of U2G G20A A96U, the self-cleavage was 1.11.

Turning to U2C A11U A82G, the self-cleavage was found to be 0.48.

With U2C U102C U132C, the self-cleavage came out at 1.91.

Take U2C U9C A24G C45G A117G: the self-cleavage came out at 1.56.

For U2C A64G A111U, the self-cleavage was found to be 0.38.

U3A A11G A63G A135C: the self-cleavage worked out at 0.41.

As for U2A U108C A126G, the self-cleavage is 0.02.

With U2C A13U A24G A66G C128U, the self-cleavage was determined as 0.83.

For U2C A22G U131C, the self-cleavage stood at 0.92.

Consider U2C A55G A111G U127C, for which the self-cleavage worked out at 0.01.

Take U2C A51G A52U A66U: the self-cleavage turned out to be 0.84.

With U2C U3C A51G U102C A110U, the self-cleavage worked out at 1.23.
